The whole screen tested about 410,000 compounds, of which about 530 (0.13%) were called active. Inconclusive means that the source gave no clear call. Such entries were picked first, then a sample of the others. The call rests on the fitted dose curve; in most records, active means well fitted inhibition curve with a large enough effect; inconclusive means small, poorly fitted or top-dose-only effect, or another doubt; inactive means no such curve, though single readings can be large or run the other way. Potencies beside an inconclusive call are fits to weak or partial responses and may not hold up.
Experiment: qHTS of GLP-1 Receptor Inverse Agonists: Cytotox Screen
Details: HEK293 cAMP-luciferase reporter cells, luminescence, 24 h; series mostly up to 38.3 µM
Procedure, shortened: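 Seeding density was 200 cells/uL; after overnight-length (12 h) culture, 23 nL compounds went on for 24 h at 37 °C. Readout used a luciferase detection reagent, luminescence taken after 12 min at room temperature.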
Potency means the concentration at half of the fitted maximal effect.

Row | Structure (SMILES) | Potency
1 | O=C(NC(=S)Nc1ccccc1N1CCCC1)c1ccc(F)cc1 | inconclusive: 20 µM [inhibitor, single point]
2 | CCOC(=O)/C(=N\Nc1cc(Cl)ccc1Cl)N1CCN(C)CC1 | inconclusive: 28.2 µM [inhibitor, single point]
3 | N#Cc1ccc(NC(=O)COCc2cc(-c3ccc4c(c3)OCO4)on2)cc1 | inactive
4 | CC(=O)NC(Cc1c[nH]c2ccccc12)C(=O)NCCc1ccccn1 (stereo not given) | inconclusive: 1.78 µM [inhibitor, partial curve, poor fit]
5 | CCOC(=O)/C=C(\C)Sc1cc(=O)oc2ccccc12 | inconclusive: 28.2 µM [inhibitor, single point]
6 | Cc1ccc(C)c(N2CCN(C(=O)c3ccc(CS(=O)(=O)c4ccccc4C)o3)CC2)c1 | inconclusive: 10 µM [inhibitor, single point]
7 | CCC1CCc2sc(C(=O)OCC(=O)N(CCOC)c3c(N)n(Cc4ccccc4)c(=O)[nH]c3=O)cc2C1 (stereo not given) | inconclusive: 28.2 µM [inhibitor, single point]
8 | COc1ccc(-n2ncc3c(N4CCN(Cc5ccccc5)CC4)ncnc32)cc1 | inconclusive: 10 µM [inhibitor, single point]
9 | CN1CCN(C(=O)CCN2C(=O)/C(=C/c3ccccc3Cl)SC2=S)CC1 | inconclusive: 12.6 µM [inhibitor, partial curve, poor fit]
10 | Cc1cc(Nc2ccccc2)n(-c2nc3ccccc3[nH]2)n1 | inconclusive: 15.8 µM [inhibitor, partial curve, poor fit]
11 | CCNC(=S)NNc1ccccc1 | inconclusive: 12.6 µM [inhibitor, partial curve, poor fit]
12 | O=C(N/N=C1\CCCc2c1[nH]c1ccc(Cl)cc21)c1ccncc1 | inconclusive: 28.2 µM [inhibitor, single point]
13 | COc1ccc2nc(C)cc(N/N=C/c3ccccc3)c2c1 | inconclusive: 28.2 µM [inhibitor, single point]
14 | COc1cccc(NC(=O)N(Cc2cn(C)c3ccccc23)C2CCCCC2)c1 | inconclusive: 28.2 µM [inhibitor, single point]
15 | C/C(=N\NC(=S)NC(C)C)c1ccccc1 | inconclusive: 14.1 µM [inhibitor, single point]
16 | Cc1ccc2nc(Nc3ccccc3)cc(C)c2c1 | inconclusive: 28.2 µM [inhibitor, single point]
17 | Cc1ccsc1/C=N/NC(=O)Cc1ccc([N+](=O)[O-])cc1 | inactive
18 | CC(C)(C)NC(=O)/C(=C\C=C\c1ccccc1)NC(=O)c1ccc([N+](=O)[O-])cc1 | inconclusive: 14.1 µM [inhibitor, single point]
19 | COc1cc(NC(=O)C/C(C)=N/NC(=O)Cc2ccc(Cl)cc2)c(OC)cc1Cl | inconclusive: 12.6 µM [inhibitor, partial curve, poor fit]
20 | Cc1ccc2ccc3cccnc3c2n1 | inconclusive: 0.891 µM [inhibitor, full curve, poor fit]
21 | CCCC(=O)Nc1cc(C)cn(Cc2c(F)cccc2Cl)c1=O | inconclusive: 28.2 µM [inhibitor, single point]
22 | CCn1c(CN2CCN(c3cccc(C)c3C)CC2)n[nH]c1=S | inconclusive: 28.2 µM [inhibitor, single point]

Row | Structure (SMILES) | Potency
23 | Cc1ccc(NN2C(=O)C=C(c3ccccc3)C2=O)cc1 | inconclusive: 31.6 µM [inhibitor, single point]
24 | Nc1ncn(C(=S)Nc2ccccc2)n1 | active: 4.47 µM
25 | CCN(Cc1ccncc1)Cc1cn[nH]c1-c1ccc(OC)cc1F | inactive
26 | O=C(N/N=C/c1ccc([N+](=O)[O-])o1)C1CC1 | inactive
27 | CCOC(=O)c1sc2nc(CSc3ccccc3)nc(NCCN(C)C)c2c1C | inconclusive: 14.1 µM [inhibitor, single point]
28 | Cc1nn(-c2ccccc2)c2c1C1(C(=O)N(C(C)C)c3ccccc31)C(C#N)=C(N)O2 (stereo not given) | inconclusive: 10 µM [inhibitor, partial curve]
29 | Cc1ccc(NC(=O)CN2CCC(Cc3ccccc3)CC2)cc1S(=O)(=O)N(C)C | inactive
30 | COc1ccc(C(=O)NCC(=O)Nc2ccc(-c3ccccc3)cc2)cc1 | inconclusive: 0.501 µM [inhibitor, full curve, poor fit]
31 | COCc1nnc(NC(=O)c2cccc(NC(=O)c3ccccc3)c2)s1 | inconclusive: 14.1 µM [inhibitor, single point]
32 | O=S(=O)(c1ccc2nc(-c3ccccc3)[nH]c2c1)N1CCN(c2ccc(Cl)cc2)CC1 | inconclusive: 28.2 µM [inhibitor, single point]
33 | CC(C)(C)c1ccc(OCCCNC2CCCC2)cc1 | inconclusive: 22.4 µM [inhibitor, single point]
34 | CC(=O)N1CCN(c2nc3ccc([N+](=O)[O-])cc3s2)CC1 | inconclusive: 10 µM [inhibitor, partial curve, poor fit]
35 | CCOC(=O)c1ccc(NC(=O)CCCc2nc(-c3cc(OC)c(OC)c(OC)c3)no2)cc1 | inactive
36 | Cc1nc(NCc2ccco2)c(C#N)c2c1COC(C)(C)C2 | inactive
37 | Cc1nc2ccc(NS(=O)(=O)c3c(C)c(C)cc(C)c3C)cc2s1 | inconclusive: 28.2 µM [inhibitor, single point]
38 | COc1ccc2nc(SCc3cccc(C)c3)nc(C)c2c1 | inactive
39 | O=C(CNC(=O)c1ccc(F)cc1)N/N=C/c1cc(Br)ccc1OC(=O)/C=C/c1ccco1 | inactive
40 | O=C(C(Br)=Cc1ccccc1)c1ccccc1 | inconclusive: 3.16 µM [inhibitor, partial curve, poor fit]
41 | Cc1cccc(Nc2nc3c(s2)CCCC3)c1 | inconclusive: 28.2 µM [inhibitor, single point]
42 | COc1ccc(-n2c(C)nc3c(cnn3-c3ccccc3)c2=O)cc1 | inconclusive: 12.6 µM [inhibitor, partial curve, poor fit]
43 | CCCc1nc2ccccc2n1CCc1ccccc1 | inactive
44 | NC(Cc1ccc(F)cc1)c1csc(Nc2cc(Oc3ccccc3)ncn2)n1 (stereo not given) | inconclusive: 12.6 µM [inhibitor, single point]

Row | Structure (SMILES) | Potency
45 | CSc1nc(N)n(-c2cc(C(F)(F)F)ccn2)n1 | inconclusive: 11.2 µM [inhibitor, single point]
46 | COc1cccc(C2c3c(-c4cc(Cl)c(C)cc4O)n[nH]c3C(=O)N2Cc2cccnc2)c1 (stereo not given) | inconclusive: 14.1 µM [inhibitor, partial curve, poor fit]
47 | CCSc1ccccc1C(=O)N1CCN(c2ccc([N+](=O)[O-])cc2)CC1 | inconclusive: 11.2 µM [inhibitor, single point]
48 | COc1ccc(C2=NN(CCC(=O)NCc3ccc4c(c3)OCO4)C(=O)CC2)cc1 | inactive
49 | CCc1nc2ccc(C(=O)NC3CCN(Cc4ccccc4)CC3)cn2c1N(C)Cc1cc2ccccc2s1 | inconclusive: 28.2 µM [inhibitor, single point]
50 | CC(C)C(C(=O)NC1CCCC1)N(CC1CCCO1)C(=O)CNS(=O)(=O)c1ccc(F)cc1 (stereo not given) | inactive
51 | COc1cccc(NC(=O)CSc2nc(C)c(Cc3ccccc3)c(=O)[nH]2)c1 | inactive
52 | COc1cccc2sc3ccc(C#CC4(O)CCCCC4)cc3c(=O)c12 | inconclusive: 28.2 µM [inhibitor, single point]
53 | O=C(CSc1nnc(-c2ccccc2)n1-c1ccc(Cl)cc1)N/N=C/c1ccco1 | inconclusive: 28.2 µM [inhibitor, single point]
54 | CCOC(=O)c1c(NC(=O)CSc2cccc[n+]2[O-])sc(C(=O)Nc2ccccc2)c1C | inconclusive: 12.6 µM [inhibitor, single point]
55 | CC(C)C[C@@H](CN)NC(=O)c1nc[nH]c1C(=O)N[C@@H](CC(C)C)C(=O)CNC[C@H](C)NC(=O)c1nc[nH]c1C(=O)N[C@@H](CC(=O)O)C(=O)O | inactive
56 | CCOc1ccc(C2C(C(=O)Nc3ccccc3)=C(C)N=c3s/c(=C/c4cccc(OCC(=O)O)c4)c(=O)n32)cc1 (stereo not given) | inconclusive: 15.8 µM [inhibitor, single point]
57 | COc1ccc2cc(Br)ccc2c1CC(=O)NC1CC(C)(C)NC(C)(C)C1 | inconclusive: 28.2 µM [inhibitor, single point]
58 | Cc1cc(-c2ccc(S(=O)(=O)Nc3cc(Cl)ccc3C)s2)on1 | inconclusive: 1.41 µM [inhibitor, full curve, poor fit]
59 | COc1ccc(CCNC(=O)c2cc3c(-c4ccc(OC)c(OC)c4)nn(C)c3s2)cc1OC | inconclusive: 28.2 µM [inhibitor, single point]
60 | O=C(N/N=C\c1ccccn1)c1ccccc1O | inconclusive: 12.6 µM [inhibitor, single point]
61 | O=C(Oc1c(Cl)cc(Cl)c2cccnc12)c1cccc([N+](=O)[O-])c1 | inconclusive: 2.24 µM [inhibitor, full curve, poor fit]
62 | COC(=O)C1=C/C=C\CN(C(c2ccccc2)c2ccccc2)/C=C\1C(=O)OC | inactive
63 | CCOC(=O)C1=C(c2ccccc2)NC(SCC(=O)NC2CCCCC2)=C(C#N)C1c1ccco1 (stereo not given) | inconclusive: 2.51 µM [inhibitor, partial curve, poor fit]
64 | Cc1cc(C)cc(NC(=S)NC(=O)Cc2ccccc2)c1 | inconclusive: 28.2 µM [inhibitor, single point]
65 | CCCCCc1ccc(OCCCC[n+]2cccc(C)c2)c(CCCCC)c1 | inconclusive: 12.6 µM [inhibitor, partial curve, poor fit]
